# Measured values: the supplement of paper PMC10369915
# Some of the results follow. No stated cut-off is given here; in the data, active = 3.2 or more and inactive = the rest. Only a few entries rise above the background.
# B1: MAP1A_Y1909 (peptide)
# chain: PLGKDYRKAEG
# B2: MAP1A_Y1909_A1912V (peptide)
# chain: PLGKDYRKVEG
# B3: MAP1A_Y2217 (peptide)
# chain: TRHDEYLEVTK
# B4: MAP1B_Y1921 (peptide)
# chain: PSDSGYSYETI
# B5: MAP1B_Y1921_S1917R_YF (peptide)
# chain: PRDSGYSFETI
# B6: MAP2K3_Y214 (peptide)
# chain: FGISGYLVDSV
# B7: MAP3K4_Y582 (peptide)
# chain: MWGSDYVQLSR
# B8: MAP3K4_Y582_Q584H (peptide)
# chain: MWGSDYVHLSR
# B9: MAP3K7_Y405 (peptide)
# chain: AATTAYSKPKR
# B10: MAP3K7_Y405_R410Q (peptide)
# chain: AATTAYSKPKQ
# B11: MAPK14_Y323 (peptide)
# chain: PVADPYDQSFE
# B12: MAPRE2_Y162 (peptide)
# chain: FYDANYDGKEY
# B13: MAPRE2_Y167 (peptide)
# chain: YDGKEYDPVEA
# B14: MAPT_Y18 (peptide)
# chain: DHAGTYGLGDR
# B15: MAPT_Y29 (peptide)
# chain: KDQGGYTMHQD
# B16: MARK3_Y432 (peptide)
# chain: PSVVAYPKRSQ
# B17: MARK3_Y432_V429A (peptide)
# chain: PSAVAYPKRSQ
# B18: MARS1_Y344 (peptide)
# chain: IHADIYRWFNI
# Molecular target: SHP2 C-SH2 domain E139D
# Test: enrichment score (SH2-bound / input frequency) (ratio); bacterial display of known human phosphotyrosine sites (pTyr-Var adds point mutants) read by sequencing; higher = stronger binding; tyrosines were phosphorylated by kinases first
# Conditions: peptide library: pTyr-Var
# 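Further: displayed peptides selected on beads carrying the immobilized SH2 domain, with library peptides lacking any tyrosine serving as negative controls.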
row,Binder,enrichment score
1,B1,inactive: 0.517
2,B2,inactive: 0.499
3,B3,inactive: 0.757
4,B4,inactive: 0.409
5,B5,inactive: 0.826
6,B6,inactive: 1.64
7,B7,inactive: 0.946
8,B8,inactive: 0.966
9,B9,inactive: 0.477
10,B10,inactive: 1.23
11,B11,inactive: 0.435
12,B12,inactive: 0.802
13,B13,inactive: 0.703
14,B14,inactive: 0.547
15,B15,inactive: 0.663
16,B16,inactive: 0.528
17,B17,inactive: 0.44
18,B18,active: 3.5

# Molecular target: SHP2 C-SH2 domain wild-type
# Test: as above
# Conditions: peptide library: pTyr-Var
row,Binder,enrichment score
1,B1,inactive: 0.515
2,B2,inactive: 0.405
3,B3,inactive: 0.387
4,B4,inactive: 0.389
5,B5,inactive: 0.749
6,B6,inactive: 1.53
7,B7,inactive: 0.702
8,B8,inactive: 0.849
9,B9,inactive: 0.465
10,B10,inactive: 0.437
11,B11,inactive: 0.632
12,B12,inactive: 0.585
13,B13,inactive: 0.577
14,B14,inactive: 0.606
15,B15,inactive: 0.53
16,B16,inactive: 0.616
17,B17,inactive: 0.483
18,B18,inactive: 3.16

# Molecular target: SHP2 N-SH2 domain L43F
# Test: as above
# Conditions: peptide library: pTyr-Var
row,Binder,enrichment score
1,B1,inactive: 0.543
2,B2,inactive: 0.398
3,B3,inactive: 0.494
4,B4,inactive: 0.315
5,B5,inactive: 0.925
6,B6,inactive: 1.56
7,B7,inactive: 0.848
8,B8,inactive: 0.986
9,B9,inactive: 0.411
10,B10,inactive: 0.426
11,B11,inactive: 0.609
12,B12,inactive: 0.526
13,B13,inactive: 0.446
14,B14,inactive: 0.508
15,B15,inactive: 0.608
16,B16,inactive: 0.608
17,B17,inactive: 0.392
18,B18,active: 3.3

# Molecular target: SHP2 N-SH2 domain T42A
# Test: as above
# Conditions: peptide library: pTyr-Var
row,Binder,enrichment score
1,B1,inactive: 0.476
2,B2,inactive: 0.246
3,B3,inactive: 0.43
4,B4,inactive: 0.554
5,B5,inactive: 0.739
6,B6,inactive: 1.91
7,B7,inactive: 0.982
8,B8,inactive: 0.927
9,B9,inactive: 0.6
10,B10,inactive: 0.932
11,B11,inactive: 0.569
12,B12,inactive: 0.668
13,B13,inactive: 0.505
14,B14,inactive: 0.57
15,B15,inactive: 0.574
16,B16,inactive: 0.364
17,B17,inactive: 0.565
18,B18,inactive: 2.9

# Molecular target: SHP2 N-SH2 domain T52S
# Test: as above
# Conditions: peptide library: pTyr-Var
row,Binder,enrichment score
1,B1,inactive: 0.444
2,B2,inactive: 0.313
3,B3,inactive: 0.543
4,B4,inactive: 0.46
5,B5,inactive: 0.697
6,B6,inactive: 1.97
7,B7,inactive: 0.856
8,B8,inactive: 0.906
9,B9,inactive: 0.578
10,B10,inactive: 0.455
11,B11,inactive: 0.746
12,B12,inactive: 0.583
13,B13,inactive: 0.468
14,B14,inactive: 0.588
15,B15,inactive: 0.612
16,B16,inactive: 0.701
17,B17,inactive: 0.522
18,B18,inactive: 2.76

# Molecular target: SHP2 N-SH2 domain wild-type
# Test: as above
# Conditions: peptide library: pTyr-Var
row,Binder,enrichment score
1,B1,inactive: 0.707
2,B2,inactive: 0.532
3,B3,inactive: 0.645
4,B4,inactive: 0.378
5,B5,inactive: 0.674
6,B6,inactive: 1.23
7,B7,inactive: 0.78
8,B8,inactive: 1
9,B9,inactive: 0.562
10,B10,inactive: 0.866
11,B11,inactive: 0.719
12,B12,inactive: 0.585
13,B13,inactive: 0.697
14,B14,inactive: 0.706
15,B15,inactive: 0.698
16,B16,inactive: 0.391
17,B17,inactive: 0.524
18,B18,active: 3.61
